Laboratory results: PubChem BioAssay AID588591 (National Center for Advancing Translational Sciences (NCATS), 2011)
Hit rate of the full screen: of about 390,000 compounds, about 4,700 (1.2%) were called active. This list was built around the results that the source calls inconclusive (neither active nor inactive); the mix of calls is not that of the screen. Calls follow the shape of the dose curve; as a rule, active = well fitted inhibition curve with a large enough effect; inconclusive = small, poorly fitted or top-dose-only effect, or another doubt; inactive = no such curve, though single readings can be large or run the other way. Potencies beside an inconclusive call are fits to weak or partial responses and may not hold up.

The molecules below were run against DNA polymerase eta (Homo sapiens) (UniProt Q9Y253) (assay: qHTS for Inhibitors of Polymerase Eta). Conditions: recombinant Pol eta, fluorescent DNA replication assay; series mostly up to 114 µM.
Summary of the method: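 Fluorescent replication assay: 50 nM final substrate added after a 15 min room-temperature compound preincubation with 10 nM enzyme. Signal taken at 0 min and again at 10 min.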
Potency is read from the fitted curve at half-maximal effect; tags tell the direction and shape of the fitted curve.

UniProt Q9Y253, sequence (Q9Y253 whole entry, looked up): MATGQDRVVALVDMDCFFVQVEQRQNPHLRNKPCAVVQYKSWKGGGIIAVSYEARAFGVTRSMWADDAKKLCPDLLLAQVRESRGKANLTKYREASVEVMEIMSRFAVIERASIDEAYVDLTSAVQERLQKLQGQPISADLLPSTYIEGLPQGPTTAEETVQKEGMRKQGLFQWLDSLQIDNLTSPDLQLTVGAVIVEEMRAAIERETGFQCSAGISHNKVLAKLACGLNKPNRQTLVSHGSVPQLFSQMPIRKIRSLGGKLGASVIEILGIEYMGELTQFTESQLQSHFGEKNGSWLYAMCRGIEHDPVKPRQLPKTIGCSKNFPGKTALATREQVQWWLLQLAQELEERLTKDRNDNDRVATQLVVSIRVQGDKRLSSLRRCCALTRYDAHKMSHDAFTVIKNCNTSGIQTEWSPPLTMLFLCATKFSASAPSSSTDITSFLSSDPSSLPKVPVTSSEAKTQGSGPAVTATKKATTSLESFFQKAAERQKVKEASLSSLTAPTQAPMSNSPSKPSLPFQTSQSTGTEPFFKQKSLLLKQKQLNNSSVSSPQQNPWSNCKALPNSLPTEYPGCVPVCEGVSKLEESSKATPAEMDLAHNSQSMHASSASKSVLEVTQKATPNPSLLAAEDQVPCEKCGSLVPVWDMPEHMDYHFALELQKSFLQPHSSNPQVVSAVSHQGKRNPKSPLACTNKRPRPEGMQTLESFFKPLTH

Structure (SMILES)	Potency
Cc1c(OC(C)C(=O)NC(Cc2c[nH]c3ccc(O)cc23)C(=O)O)ccc2c1oc(=O)c1ccccc12 (configuration not stated)	active: 20 µM
Cc1ccc(S(=O)(=O)c2nnn3c2nc(N2CCN(c4ccccc4F)CC2)c2ccccc23)cc1C	inactive
COc1cccc(C2=CC(c3ccc(N(C)C)cc3)n3nnnc3N2)c1 (configuration not stated)	inconclusive: 20 µM [inhibitor, partial curve, poor fit]
CCOC(=O)C1=C(C)N=c2s/c(=C\c3ccc(OCC(=O)O)cc3)c(=O)n2C1c1ccc(Cl)cc1 (configuration not stated)	inconclusive: 35.5 µM [inhibitor, partial curve, poor fit]
Cc1nn(-c2ccccc2)c(N2CCCC2)c1/C=N/NC(=S)Nc1cc(C(F)(F)F)ccc1Cl	inconclusive: 100 µM [inhibitor, partial curve, poor fit]
Cc1ccc(S(=O)(=O)NCc2ccc(C(=O)N3CCN(c4ccc([N+](=O)[O-])cc4)CC3)cc2)cc1	inconclusive: 31.6 µM [inhibitor, partial curve, poor fit]
COc1ccc(Cl)c2c1[nH]c1nc(SCc3ccccn3)nnc12	inconclusive: 25.1 µM [inhibitor, full curve]
CC(C)(C)C(=O)N1CCN(c2nc3c(F)cccc3s2)CC1	inactive
Cc1ccc(C(=O)NC2(C(F)(F)F)C(=O)Nc3c2c(=O)[nH]c(=O)n3CCc2ccccc2)cc1 (configuration not stated)	inactive
COc1ccc(-c2cc(C(=O)Oc3ccc(C)c(C)c3)c3ccccc3n2)cc1	inactive
Cc1ccc(S(=O)(=O)Nc2nc(C)c(C(=O)N/N=C/c3ccccc3)s2)cc1	inconclusive: 39.8 µM [inhibitor, full curve]
Cc1[nH]n(-c2ccccc2)c(=O)c1C=Nc1cnc2ccccc2c1	inconclusive: 20 µM [inhibitor, partial curve, poor fit]
Cc1ccc(NC(=S)NC(NC(=O)c2ccccc2)C(Cl)(Cl)Cl)c(C)c1 (configuration not stated)	inconclusive: 79.4 µM [inhibitor, partial curve, poor fit]
O=C(CSc1nc(-c2ccccc2)cn1-c1ccccc1)Nc1ccccc1	inconclusive: 4.47 µM [inhibitor, partial curve, poor fit]
CC(C)(C)c1nc2ccccc2c2nnc(SCC(=O)Nc3nccs3)n12	inactive
CCOc1cc(-c2nc(-c3ccc(-c4ccc(OC)cc4)nc3OC)no2)cc(OCC)c1OCC	inactive
Cc1cc(=O)[nH]c(SCC(=O)Nc2ncc(S(=O)(=O)c3ccc([N+](=O)[O-])cc3)s2)n1	inconclusive: 44.7 µM [inhibitor, partial curve, poor fit]
